# In PubChem BioAssay AID504466 (National Center for Advancing Translational Sciences (NCATS), 2011):
# Screen size: about 330,000 compounds; about 4,200 (1.3%) were called active. This list was built around the results that the source calls inconclusive (neither active nor inactive); the mix of calls is not that of the screen. Calls come from the whole dose curve; as a rule, active = well fitted activation curve with a large enough effect; inconclusive = small, poorly fitted or top-dose-only effect; inactive = no such curve, though single readings can be large or run the other way. A potency beside an inconclusive call is a rough fit, not a confirmed value.
# Test: qHTS screen for small molecules that induce genotoxicity in human embryonic kidney (HEK293T) cells expressing luciferase-tagged ELG1; note: nearly all actives have a fitted effect of over 60% in size; for activity change, positive = activation: % of control where 0% means no effect
# Details: HEK293T ELG1-luciferase reporter, luminescence, 16 h; series mostly up to 46 µM; activity change, positive = activation: at the top concentration
# Summary of the method: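 Step 1: seed 2,000 HEK293T ELG1-luciferase cells per well. Step 2: add compound or DMSO, incubate 16 hr at 37 °C. Step 3: ONE-Glo, 30 min at room temperature, read luminescence.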
# Potency is the fitted concentration of half-maximal effect; tags give direction and shape of the fitted curve.
Compound,"activity change, positive = activation",Potency
Cc1nn(C)c(C)c1NC(=O)CN1CCC(O)(c2ccc3c(c2)OCO3)CC1,inactive: 1.72%,
O=C(CN1CCC(NC(=O)Nc2ccccc2)CC1)Nc1ccc([N+](=O)[O-])cc1,inactive: -10.7%,
CC(C)(C)c1ccc(C(=O)NCC(=O)N2CCCC2)cc1,,"inconclusive: 14.6 µM [activator, partial curve, poor fit]"
Cc1ccc(-n2ncc3ccccc3c2=O)cc1Cl,,"inconclusive: 9.2 µM [activator, partial curve]"
C/C(=N\OC(=O)c1ccc(F)cc1)c1sc(-c2ccccc2)nc1C,,"inconclusive: 11.6 µM [activator, partial curve]"
CCC(=O)Nc1ccc(NC(=O)c2ccccc2)nc1,,"inconclusive: 1.16 µM [activator, partial curve]"
COc1ccc(NC(=O)c2ccc(C)cc2Cl)c([N+](=O)[O-])c1,,"inconclusive: 16.4 µM [activator, partial curve, poor fit]"
COC(=O)c1sc2nc3c(cc2c1N)COC(C)(C)C3,,active: 8.2 µM
CCOc1ccc(NS(=O)(=O)c2ccc(C(=O)NC3CCN(Cc4ccccc4)CC3)cc2)cc1,,"inconclusive: 23.1 µM [activator, single point]"
Clc1ccc2nc(N3CCCCC3)sc2c1,,"inconclusive: 8.2 µM [activator, partial curve]"
Cc1ccccc1-c1nc2cc(N)ccc2o1,,"inconclusive: 2.31 µM [activator, full curve]"
COc1ccc(C(=O)N(CCc2ccccc2)Cc2ccccc2)cc1S(=O)(=O)N1CCOCC1,inactive: -6.51%,
CC(=O)n1nc(-c2ccc(Cl)cc2)nc1NCc1ccco1,,active: 20.6 µM
CN(CC(=O)N1CCCCCC1)S(=O)(=O)c1ccc(F)cc1,,"inconclusive: 20.6 µM [activator, single point]"
O=C(COc1ccc2c(c1)OCO2)NC12CC3CC(CC(C3)C1)C2,,"inconclusive: 14.6 µM [activator, partial curve, poor fit]"
CCOC(=O)c1sc(=NC(=O)c2cccc(C)c2)n(C)c1C,,"inconclusive: 0.517 µM [activator, partial curve, poor fit]"
c1ccc(C2=NNC(=NC3CC3)SC2)cc1,,"inconclusive: 0.651 µM [activator, full curve]"
CC(=O)Nc1ccc(-n2cc(-c3ccccc3)[nH]c2=S)cc1,inactive: 5.21%,
C/C(=N\NC(=O)c1ccc(O)cc1)c1cc2ccccc2o1,,"inconclusive: 11.6 µM [activator, partial curve, poor fit]"
COc1ccc(-c2cn3ccc4ccccc4c3n2)cc1,,active: 1.16 µM
Cc1cc(C)[n+](C)n1CC(O)Cn1c2ccccc2c2ccccc21 (centres undefined),inactive: -6.43%,
CCN(CCO)C(=O)c1ccc2nc(Cc3cccc(Cl)c3)oc2c1,inactive: 6.99%,
Cc1cccc(-n2nc(C(=O)c3ccco3)cc(-c3nc4ccccc4[nH]3)c2=N)c1,inactive: -20.5%,
COc1ccccc1C(=O)Nc1ccc2c(C)cc(=O)oc2c1,,"inconclusive: 2.59 µM [activator, full curve, poor fit]"
CCOC(=O)/C=C/c1cnn(-c2ccccc2)c1,,"inconclusive: 23.1 µM [activator, partial curve, poor fit]"

Compound,"activity change, positive = activation",Potency
CCOC(=O)C1CCCN(C(=O)c2ccccc2NC(=O)C2=C(C)OCCS2)C1 (centres undefined),inactive: 0.116%,
CN(C)C(=O)CSc1ccc(S(=O)(=O)N2CCOCC2)cn1,inactive: 0.682%,
O=C(/C=C/c1ccccc1)c1ccccc1,,"inconclusive: 25.9 µM [activator, partial curve, poor fit]"
Cc1cccc(-n2c(SCC(=O)NCC3CCCO3)nc3ccccc3c2=O)c1C (centres undefined),inactive: 0.924%,
Cc1ccc(OCCNC(=O)c2ccc(C)cc2)cc1,,"inconclusive: 14.6 µM [activator, single point]"
CCCn1c(C)cc(C(=O)COC(=O)c2ccc[nH]c2=O)c1C,,"inconclusive: 2.31 µM [activator, full curve]"
O=C(O)c1cc(NN=C2CCN(Cc3ccccc3)CC2)ccc1Cl,,"inconclusive: 23.1 µM [activator, partial curve, poor fit]"
COc1ccc(-c2csc(Nc3ncccn3)n2)cc1C,,"inconclusive: 0.517 µM [activator, full curve, poor fit]"
O=C(Nc1nc2ccccc2[nH]1)Nc1ccccc1F,,active: 1.16 µM
Cc1cc(C)n2nc(-c3cnn(C)c3C(F)(F)F)cc2n1,,"inconclusive: 18.4 µM [activator, partial curve, poor fit]"
CCCCOc1ccc(C(=O)Nc2ccc(SC(F)F)cc2)cc1OC,inactive: 2.72%,
O=C(c1ccc(-c2cccc(Cl)c2Cl)o1)N1CCOCC1,,"inconclusive: 14.6 µM [activator, partial curve]"
COc1ccc2c(c1)C(=O)[C@@H](O)[C@H](c1ccc(OC)c(Br)c1)O2,,"inconclusive: 20.6 µM [activator, partial curve, poor fit]"
CCOC(=O)c1ccc(NC(=S)N2CCC(O)CC2)cc1,,"inconclusive: 29.1 µM [activator, partial curve, poor fit]"
CCOC(=O)c1c(N)sc2c1CCC1C(=O)N(C3CCCCC3)C(=O)C21 (centres undefined),,"inconclusive: 23.1 µM [activator, partial curve, poor fit]"
COc1cc(C=NNC(=O)c2cccnc2)ccc1OC(=O)c1ccccc1F,inactive: 0.184%,
CCc1nnc(NC(=O)Nc2ccc(OC)cc2)s1,,"inconclusive: 12.6 µM [activator, partial curve, poor fit]"
Cc1c(C(=O)/C=C/N(C)C)nnn1-c1ccc(Cl)cc1C#N,inactive: 0.54%,
O=C(CCCCCn1c(=O)[nH]c2ccccc2c1=O)N1CCN(Cc2ccc3c(c2)OCO3)CC1,inactive: -17%,
Fc1cc(F)c2nc(N3CCCCC3)sc2c1,,"inconclusive: 18.4 µM [activator, partial curve, poor fit]"
C/C(CC(=O)N1CCN(C=O)CC1)=N\NC(=O)c1cc2ccccc2cc1O,inactive: 0.237%,
CC(=O)c1ccc(N2C(=O)C3C(C2=O)C(C(=O)c2ccc(Cl)cc2)N2CCCC32)cc1 (centres undefined),,"inconclusive: 18.4 µM [activator, partial curve, poor fit]"
CCc1cccc(C)c1NC(=O)CN(C)Cc1ccccc1F,inactive: -0.479%,
CS(=O)(=O)N1CCN(c2ccc(NC(=O)c3cc4ccccc4o3)cc2)CC1,,"inconclusive: 5.17 µM [activator, partial curve, poor fit]"
O=C(/C=C/c1cccc(Cl)c1)NCCc1ccccc1,,"inconclusive: 20.6 µM [activator, partial curve, poor fit]"

Compound,"activity change, positive = activation",Potency
Cc1cccc(NS(=O)(=O)c2cccc(C(=O)N3CCN(C/C=C/c4ccccc4)CC3)c2)c1,inactive: -11.3%,
O=C(Nc1ccc(N=Nc2ccccc2)cc1)c1ccc(Cl)cc1Cl,inactive: 4.37%,
CCn1nnnc1SCC(=O)c1ccc(C)cc1,,"inconclusive: 16.4 µM [activator, partial curve, poor fit]"
O=C(CSc1nc2ccccc2[nH]1)c1ccccc1F,,"inconclusive: 9.2 µM [activator, partial curve]"
COc1ccc(OC)c2nc(-c3ccc4c(c3)OCO4)ccc12,,active: 4.61 µM
O=[N+]([O-])c1ccc(-c2cn3c(n2)CCC3)cc1,inactive: 15%,
COc1ccc(-c2cc(=O)c3c(O)cc(O)cc3o2)cc1,,"inconclusive: 2.91 µM [activator, single point]"
CN(C)C(=O)C1C2NC(=S)N(c3cccc(Cl)c3)C1(C)Oc1ccc(Cl)cc12 (centres undefined),inactive: -2.89%,
COc1cc(/C=N/N2CCOCC2)ccc1OCc1ccc(Cl)cc1,,"inconclusive: 23.1 µM [activator, single point]"
O=C(Oc1ccc(/C=N/NC(=O)c2ccccc2O)cc1)c1ccccc1,,"inconclusive: 20.6 µM [activator, partial curve, poor fit]"
CC(=O)Nc1c(C)ccc(CNC(=O)COc2cc(C)ccc2C)c1C,inactive: -2.26%,
CCCNC(=O)c1cn(CC)c2cc(N3CCN(C(=O)c4ccco4)CC3)c(F)cc2c1=O,inactive: -9.58%,
O=C(Nc1ccccc1)C1=C(c2ccccc2)S(=O)(=O)CCS1(=O)=O,inactive: -13%,
Cc1nn2c(N)c(C#N)cnc2c1-c1ccccc1,,"inconclusive: 16.4 µM [activator, partial curve, poor fit]"
CCOC(=O)c1ccc2c(c1)NCc1cccc(OC)c1O2,,"inconclusive: 11.6 µM [activator, partial curve]"
CCN(CC1CCCN(CCc2cccc(OC)c2)C1)C(=O)c1ccoc1C (centres undefined),inactive: -3.58%,
COCCSc1nnc(NC(=O)c2ccc3c(c2)OCO3)s1,,"inconclusive: 14.6 µM [activator, partial curve, poor fit]"
CSc1ccc(C2Nc3cccc4cccc(c34)N2)cc1,inactive: -1.57%,
COc1ccccc1N1CCN(C(=O)c2ccc(S(=O)(=O)N3CCCCCC3)cc2)CC1,inactive: -6.79%,
COc1ccc2nc(NC(C)=O)sc2c1,,"inconclusive: 10.3 µM [activator, partial curve]"
O=C(O)CC(CC(=O)Nc1ccc(C(=O)O)cc1)c1ccccc1 (centres undefined),inactive: -0.837%,
Cn1c(=O)n(C)c2cc(C(=O)Nc3ccc(Br)cc3)ccc21,,"inconclusive: 18.3 µM [activator, single point]"
Cc1nc2ccc(NC(=O)CSc3ccccc3)cc2s1,,"inconclusive: 5.17 µM [activator, single point]"
CN(C)c1ccc(NC(=O)Nc2ccc3c(c2)nnn3C)cc1,,"inconclusive: 14.6 µM [activator, partial curve, poor fit]"
